For 167 variants, self-cleavage results are on record in the RNAGym collection of RNA variant scans (doi:10.1093/nar/gkz1192).

Sequences and labels used below:
B1: CPEB3 Ribozyme (parent)
chain: UAACAGGGGGCCACAGCAGAAGCGUUCACGUCGCAGCCCCUGUCAGAUUCUGGUGAAUCUGCGAAUUCUGCUGUAUAUCUC

The source gives no read counts; variants with many changes may rest on few reads.

In this data set the parent is B1. Briefly: self-cleavage, relative activity (ratio to wild type); higher = more cleavage; in vitro, sequencing. In short, it runs like this:
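Barcoded CPEB3 ribozyme mutants, produced by rounds of error-prone PCR, self-cleaved while being transcribed with T7 RNA polymerase for 5 hours at 37°C and during a subsequent 15 min DNase I step before EDTA was added. Sequencing of template-switched cDNA on Illumina gave cleaved and total reads, and DNA sequencing assigned barcodes to variants. Each variant's relative activity is its cleaved/total read fraction divided by the unmutated ribozyme's fraction, averaged across three batches. A variant needed a minimum of 5 reads.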
For A3C G8A U54C, the self-cleavage came to 0.5.
For A3G A5G G6A A15U A35G U72C U78C the value was 0.7; for A3C A35U A45G U72C, 0.74.
For A2U G6U A28U A45U C62G U72C the value was 0.06; for A3C A15G A45G U69A, 0.5.
Next, A2U G6A U41A A56G A75U: 0.15; A3C U26C A35U U49G U67C: 0.05; A2U C34A A47G U60C: 0.17.
With A2U A28G U72A, the self-cleavage is 0.13.
Next, A3C A20U A47G U58C U66C: 0.46.
Turning to A3G A5U U31C, the self-cleavage is 1.14.
For A2U U41C U60C A77U the value was 0.52.
On to A2U U43A A56U U72A, for which the self-cleavage stood at 0.22.
Next, A2U U25C A77G U78A: 0.26; A2U A35G U49C: 0.99; A3G A5C U26G A28U C34U A47G: 0.05.
For A3G A5G A15U U49C A75U U80A the value was 0.12; for A2U G24A C50A, 0.07; for A2U A20U G52C U74C, 0.55.
Turning to A2U G19U G33A A35G U72G A77U, the self-cleavage was found to be 0.05.
As to A2U A56G G61C U74C, the self-cleavage worked out at 0.27.
As to A3C U41A A45G A47U A56G U78A, the self-cleavage was determined as 0.16.
For A3G A5U C39G U67C U74C the value was 0.23.
For A2U G30A U41A U66C the value was 0.22; for A3G A5U A15G A28U U49C A65G, 0.49.
For A3G A13G C29U U43C C50U G52C the value was 0.14; for A3G A5U A18U U41C U60C C79A, 0.63.
For A3G A13U A15G C32U A35G C39U U60C, the self-cleavage came out at 0.3.
With A3G A13U A35G U49A U51C A56G, the self-cleavage was 1.29.
For A3C A28G G33U A45G U54A the value was 0.36; for A2U A13G U76C, 0.44.
Next, A3G A13G A18G C29G: 0.3.
Next, A2U C32A A56G U60C A64G U78C: 0.06.
As to A2U A18G A28U C37A, the self-cleavage amounted to 0.32.
For A3G A13G U31A G33A U54C U66C, the self-cleavage worked out at 0.11.
For the variant A3G A13G C14U G16C U26C A75C U78C, the self-cleavage worked out at 0.47.
Turning to A2U A18G U26A A57U C62U, the self-cleavage came to 0.1.
For A3C G19A U48C U80A the value was 0.44; for A3C G10U A15U, 0.08; for A3C A28C U31G U78C, 0.26.
For A3G A5G A21C G33U A47G U66C the value was 0.15.
Consider A3G A5G A35U A47G, for which the self-cleavage was 0.21.
On to A3G A5U U76C, for which the self-cleavage is 1.04.
For A3G A5U U41A U54C A56G U60A the value was 0.1.
Next, A3C A15U U25C U74A: 0.54; A2U C34G U49C U72C: 0.06.
Next, A2U G33C U41C A57G U78C: 0.16; A3G A13G A47G: 0.89; A2U G8U A15U U25C U80C: 0.32.
Turning to A3G A5G U72C U78C, the self-cleavage was determined as 1.03.
Next, A2U C37U C40G C79A: 0.06; A3G A13G C37U A56G U74C: 0.21; A3G A13G A21G U25A U51A G53A U74C: 0.16.
Next, A2U G8U A15U U25C: 0.25; A3C A5G U49C U74A: 0.59; A3G A13G U26C C29A G55A U60A U72A: 0.18.
As for A2U G9A A13U A18U C38U A56U, the self-cleavage was found to be 0.11.
For A3C C11A C27U U54C U58C U67A the value was 0.19; for A2U U41A A45G U49C, 0.09.
For A3G A5G U60A the value was 0; for A2U U26A A28U A35U G46A A65G, 0.12.
For A2U A15G A18U A21G U54C U69C U76C the value was 0.13; for A2U A13G U67C U69A, 0.15; for A3G A13U A18G U31A A35G, 0.83.
For the variant A3C G16C C62A, the self-cleavage was determined as 0.41.
For A2U A18G U60C A64U the value was 0.17.
For A2U A18G A21G U41C A45G C50G the value was 0.04; for A2U C12U A18U, 0.47.
As for A2U U26C U41C A56G, the self-cleavage amounted to 0.26.
Consider A2U G9U U43A A57U, for which the self-cleavage was determined as 0.38.
For A2U C11U A21G G30A U43C U74C U80C the value was 0.06; for A2U A20G U43C, 0.18.
Next, A3G A5U A47G U49C A56C: 0.58.
Next, A2U A21G U41A U66C: 0.05; A2U A20U U25C: 0.38.
For A3G A5U C32U U41C A57U U69C U80G, the self-cleavage is 0.07.
For A3G A5G A28C C32U the value was 0.11; for A3G A13G A56U, 0.39.
As to A3C C12U U31A U48A U49A, the self-cleavage turned out to be 0.3.
Next, A3G A5U A13G A57G U72A: 0.31; A3C C50A U74C: 1.11; A3C A5C A15U A21G U51A: 0.86.
For A3G A13G C34U U51C the value was 0.33; for A3C A18G U80C, 1.03; for A3C G36A C44A U54C, 0.12.
For A2U U54A A77U the value was 1.06; for A2U A21G C23U U54C U72C, 0.59.
As for A2U C32U A35C U54C, the self-cleavage is 0.11.
For A3C G8C G10C U26C A57G U69C the value was 0.06; for A2U G6U A35U U48C U60C, 0.33.
Regarding A3C C23U A35U U48C U54C, the self-cleavage was 0.05.
Take A3G A5U A45G: the self-cleavage turned out to be 0.85.
Next, A2U A21G G73C: 0.9; A3C G9A A18U A20G A21G A35G U78C: 0.57.
Regarding A3C C37G A45C U48C, the self-cleavage was found to be 0.08.
For A3C A20G U41A A47G A77G the value was 0.43; for A3C G7C U54C G63U, 0.12.
Next, A3G A5G C14U U26A U76C: 0.33; A3C A13G A20U C40U A57G: 0.1; A2U A64G U80C: 1.13.
For the variant A2U A28U U48C U72C, the self-cleavage worked out at 0.4.
Next, A3G A5G C23A U25C U41C A65G U78C: 0.09.
Next, A3G A5U A20G U25C G42A U58C U72A: 0.15; A2U A13U A18U U51C U78A: 0.12; A3C A13G U26C: 0.47.
Next, A2U C39G U43C U60C: 0.28.
As for A3G A13C U51A, the self-cleavage turned out to be 0.83.
For A2U U26G U41C the value was 0.38.
For A2U A35G U43C U58C the value was 0.74.
Next, A3G A5U A18G C59A U76A: 0.1; A2U A20G A28G A35G U41A U54C A64G: 0.29.
In the case of A2U G10A U51C G55C U67C G70C, the self-cleavage was 0.11.
Next, A2U G8A U41G G70A: 0.07; A2U U49A A56G: 0.51.
Next, A3G A5C C11G A56G U69A U76A: 0.41.
Next, A3C U31C G63A: 0.99; A3C A15G U43A C59A U67C U80A: 0.13; A3C A20U U60C U72A A77G U78C: 0.21.
Regarding A3G A13G C14A U60C, the self-cleavage was 0.24.
For A3G A13G U43C, the self-cleavage was 0.48.
For A2U A15G U43C U51A A64U U72C U78C the value was 0.13; for A3G A13G U25A U54A, 0.72; for A2U G6A A35G U54A A57G, 0.49.
Next, A3G A5G U41C: 0.72.
For A2U C27A A65U U69C A75U the value was 0.12; for A3C C62U A64G, 0.28; for A2U A18G U58A U78C, 0.15.
Take A2U G33A U43A U74A: the self-cleavage was 0.42.
Next, A2U G7U A28C U31C A47G C62U U66C: 0.09.
Next, A2U G9A A18U A56U U60C: 0.05; A3G A5G A28G A35G U72C: 0.86; A3C U54A A57G U67A: 0.79.
As for A3G A13G A64U U69C, the self-cleavage came to 0.37.
For A3C G6A C62U the value was 0.05; for A2U G7A A56G, 0.42; for A3G A5G A35G U67C U69C, 0.34.
Next, A3G A13G A15G A35G: 0.9; A3C G10A U26C U31C C44U U78C: 0.07.
As to A3G A5G A20G U49A A64G U66C, the self-cleavage stood at 0.12.
For A2U A15G U31C U49A G53A the value was 0.16; for A2U C12U U58C A64U, 0.21.
Take A2U C29A A35U G52A A56G A65C U66C: the self-cleavage was determined as 0.06.
Regarding A2U A15G A20G U41A A64G, the self-cleavage amounted to 0.46.
Regarding A3G A5G A18G A35G U72C A77U U80A, the self-cleavage is 1.02.
For A3G A5U G9A A28G A56G the value was 0.12; for A3G A5U A28G G33A U49C, 0.48.
For A3G A5U G9A A21G A28G U54C U72A the value was 0.36.
Next, A2U U41C U80C: 1.03; A2U C29U A35U U54C: 0.3; A3G A13G A64G U80C: 0.54.
In the case of A2U U25A A35G, the self-cleavage was 0.35.
With A2U C12U A21G U41C A64G U72C, the self-cleavage was 0.36.
For A2U G7A U51C the value was 0.41; for A3G A5U G7U A18G U54C U58A A77U, 0.08; for A2U G9C A13G U66C, 0.06.
Next, A2U A65U U66C U72A U80C: 0.37; A3C G6C U26C U69C: 0.12; A3C G16U A45G A75G: 0.28.
Next, A3C A28G G42A A57G C68G U69C: 0.37; A3G A13G A21U A45C U72C: 0.08; A2U A18U A20G U74C: 0.52.
In the case of A3C A28G U51A, the self-cleavage is 0.78.
A3G A5U A15U G22C U31C: the self-cleavage was determined as 0.53.
Next, A2U C14U A56G: 1.1; A3G A5G C11G U67G U72C: 0.1; A3C G19A A20G: 0.59.
As for A3G A13G A35U U58A, the self-cleavage amounted to 0.36.
